Several values for one entry are separate records, joined by “and”; a condition that tells them apart may be missing. Equal entries are not always repeated. About 230 (0.21%) of roughly 110,000 compounds showed an effect of 50% or more. This is one part of the list.
Molecular target: DPAP1 (Plasmodium falciparum, UniProt Q8IIJ9)
Assay: primary screen, percent inhibition; read by cleavage of a fluorogenic dipeptide substrate; higher = more effect of the substance
Set-up: species or system P. falciparum D10 trophozoite lysates; single well
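Further: 30 min substrate incubation versus DMSO and 10 µM JCP410 controls.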

Sequence of DPAP1 (Q8IIJ9 whole entry, looked up): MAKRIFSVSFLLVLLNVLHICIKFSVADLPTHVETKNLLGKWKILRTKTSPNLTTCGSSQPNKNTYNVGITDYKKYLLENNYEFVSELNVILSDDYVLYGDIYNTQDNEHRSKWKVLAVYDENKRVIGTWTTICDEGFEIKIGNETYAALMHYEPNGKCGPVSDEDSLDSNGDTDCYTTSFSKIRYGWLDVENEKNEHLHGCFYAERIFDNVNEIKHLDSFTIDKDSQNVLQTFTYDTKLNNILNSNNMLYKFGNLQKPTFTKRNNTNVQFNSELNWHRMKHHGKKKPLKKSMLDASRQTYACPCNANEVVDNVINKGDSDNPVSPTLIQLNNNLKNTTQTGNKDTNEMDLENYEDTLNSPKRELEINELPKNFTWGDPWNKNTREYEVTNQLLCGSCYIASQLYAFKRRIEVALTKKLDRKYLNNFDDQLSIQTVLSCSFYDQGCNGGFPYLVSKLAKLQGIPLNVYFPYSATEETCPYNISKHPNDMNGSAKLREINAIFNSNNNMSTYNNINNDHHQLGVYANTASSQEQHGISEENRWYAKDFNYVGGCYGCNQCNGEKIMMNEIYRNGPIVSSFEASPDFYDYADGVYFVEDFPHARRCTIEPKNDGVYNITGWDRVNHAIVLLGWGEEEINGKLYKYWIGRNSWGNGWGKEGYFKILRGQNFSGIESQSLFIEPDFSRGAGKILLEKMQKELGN

Point of comparison: `COc1cccc(C(=O)Nc2cc(C)on2)c1OC`, “% Inhibition @ 10 uM” value -5.6%. Against it:
- Cc1ccc(C(=O)C2=C(O)C(=O)N(c3nccs3)C2c2ccc(C)cc2)cc1 (stereo not drawn) — higher, 1.61%
- COC(=O)c1ccc(C(=O)Nc2nc3ccc(OC)cc3s2)cc1 — higher, 5.98%
- CC12CCC(C/C1=N\OC(=O)c1ccc(F)cc1)C2(C)C (stereo not drawn) — higher, -1.47%
- Cc1cccc(NC(=O)COc2ccc(C)cc2C)c1 — higher, -2.32%
- COC(=O)c1c(NC(=O)/C=C/c2ccc(OC)c(Br)c2)sc2c1CCCC2 — higher, 17.4%
- COC(=O)c1ccccc1NC(=O)c1ccccc1Br — higher, -3.04%
- COC(=O)CCS(=O)(=O)c1ccc(C)c(C)c1 — higher, -1.77%
- CCSc1nnc(NC(=O)Cc2csc(C)n2)s1 — higher, 2.04%
- Cc1cc(C)c(S(=O)(=O)NC2CCCCC2)cc1S(=O)(=O)NC1CCCCC1 — higher, 10.6%
- Cc1ccc(N2C(=O)CSC23C(=O)Nc2ccccc23)cc1 (stereo not drawn) — higher, -3.77%
- CCOc1cc(C2C(C#N)=C(N)Oc3[nH]nc(C(C)(C)C)c32)ccc1O (stereo not drawn) — higher, -4.28%
- CCOc1ccc(S(=O)(=O)/N=C(/Nc2ccccn2)c2ccccc2)cc1 — higher, -1.87%
- Cc1cc(NC(=O)c2sc3nc(N)c(C#N)cc3c2N)ccc1Br — higher, 7.96%
- CCOC(=O)c1c(C)[nH]c(C)c1S(=O)(=O)N1CCCC(C)C1 (stereo not drawn) — higher, 0.708%
- CC(C(=O)Nc1cccnc1)C1Sc2ccccc2NC1=O (stereo not drawn) — higher, 0.218%
- O=C1NC(c2ccccc2F)C(C(=O)c2ccc(Cl)cc2)=C1O (stereo not drawn) — higher, 1.86%
- COCCCn1c(CCC(=O)O)ccc1-c1cccs1 — higher, -1.15%
- O=C(CCS(=O)(=O)c1ccc(Br)s1)NC1CCCc2ccccc21 (stereo not drawn) — higher, -4.79%
- Cc1ccc(C(=O)N2CCN(C(=O)CSc3nnnn3-c3ccccc3)C2)cc1 — higher, -5.38%
- COc1ccc2c(CNCCCc3ccccc3)c(C(=O)O)n(Cc3ccccc3F)c2c1 — higher, -0.517%
- O=C(O)c1ccccc1C(=O)NCCCO — higher, 1.7%
- COc1ccc(C=O)c(OC)c1 — higher, 1.39%
- N#Cc1c(NC(=O)C2CC2c2ccccc2)sc2c1CCC2 (stereo not drawn) — higher, 2.36%
- CC1=C(C(=O)OCCOc2ccccc2)C(c2ccccc2Cl)NC(=O)N1C (stereo not drawn) — higher, 2.45%
- O=C(CSC1CC(=O)N(c2ccccc2)C1=O)Nc1ccc(Cl)cc1 (stereo not drawn) — higher, -0.988%
- Cc1ccc(C)c(OCC(=O)NC(C)(C)C)c1 — higher, -3.23%
- O=C1CCC(C(=O)N2CCN(Cc3ccccc3)CC2)N1 (stereo not drawn) — higher, -1.59%
- N#CC1=C(N)Oc2nc(SCc3ccc(Cl)cc3)nc(N)c2C1c1cccnc1 (stereo not drawn) — higher, -0.222%
- O=[N+]([O-])c1ccc(Cl)c(CN2CCCCCC2)c1 — higher, -3.79%
- NC(NC(=O)c1ccccc1)=C1C(=O)NC(=O)NC1=O — higher, 1.76%
- Cc1ccc(CCNC(=O)c2cc(-c3cccnc3)nc3ccccc23)cc1 — higher, -3.58%
- N#CC1=C(N)Oc2[nH]nc(-c3ccc(-c4ccccc4)cc3)c2C1c1ccccn1 (stereo not drawn) — higher, 1.57%
- Cc1ccc(C(=O)Nc2cccc(NC(=O)c3ccc(C)o3)c2)o1 — lower, -6.05%
- Cc1cc(NC(=O)C2=CC(c3cccs3)=NS(=O)(=O)N2C)n(-c2ccccc2)n1 — higher, 0.444%
- CCCCC(=O)NC1(C(F)(F)F)C(=O)N(CC(C)C)C2=C1C(=O)CC(C)(C)C2 (stereo not drawn) — higher, 2.38%
- COC(=O)C1=C(C)N=C(C)/C(=C(/O)OC)C1C1CC=CCC1 (stereo not drawn) — lower, -8.19%
- COc1ccc(OCC(=O)Nc2ccc(S(=O)(=O)Nc3cc(C)cc(C)c3)cc2)cc1 — higher, 10.5%
- COc1ccc(C2C(C(=O)N3CCN(C)CC3)c3cc(OC)c(OC)cc3C(=O)N2C)cc1 (stereo not drawn) — higher, -2.15%
- O=C(O)c1ccccc1-c1ccccc1C(=O)N1CCN(C(c2ccccc2)c2ccccc2)CC1 — higher, -3.27%
- COc1ccccc1C(=O)NCc1ccccc1 — higher, 4.83%
- O=C(c1ccc(Cl)cc1)n1nc(-c2ccccc2)oc1=O — higher, 4.88%
- COc1ccc(C)cc1-n1nnc(-c2nc(-c3ccncc3)no2)c1N — higher, 4.48%
- ClC1=CCC2CN(CCN3CCCC3)CC2C1 (stereo not drawn) — higher, 0.51%
- CC(=O)C1=C(C)NC(=O)NC1c1ccccc1OCc1ccccc1 (stereo not drawn) — lower, -7.34%
- O=C(NCc1ccc(F)cc1)c1nnc(-c2ccccc2)o1 — higher, -3.9%
- COc1ccc2nc(NC(=O)CSc3nc4cc(Cl)ccc4s3)sc2c1 — higher, 4.54%
- CCOC(=O)C1CC(=O)OC12CCCCC2 (stereo not drawn) — higher, -2.55%
- COc1ccccc1-n1nnnc1SCC(=O)NC1CCCC1 — higher, 4.32%
- CCc1nn(Cc2ccccc2)c(=O)c2cc3cc(C)ccc3n12 — higher, 3%
- Cc1cc2ncn(S(=O)(=O)c3ccc(Cl)cc3)c2cc1C — higher, -0.28%
- CN1CCN(CCCNC(=O)C2CCCN(S(=O)(=O)N3CCC4(CC3)OCCO4)C2)CC1 (stereo not drawn) — higher, -1.67%
- COc1cc2c(no[n+]2[O-])n2nnnc12 — higher, 2.24%
- COc1cc(-c2nc(C(N)=O)c3nc(O)n(-c4cccc(C)c4)c3n2)cc(Br)c1O — higher, 0.953%
- O=C(COc1ccc(Cl)cc1)N1CCN(c2ccccn2)CC1 — higher, -0.996%
- Cc1ccccc1-c1nnc(NC(=O)C23CC4CC(CC(C4)C2)C3)s1 — higher, 2.7%
- CC/N=C1\S/C(=C\c2cn(C(=O)CC)nc2-c2ccc(F)cc2)C(=O)N1CC — higher, 2.18%
- COc1cc(CNCCc2ccccc2OC)cc(OC)c1 — higher, 0.291%
- COc1ccccc1CN1C(=O)CN(C2CCCCC2)C(=O)C1c1ccc(Cl)cc1 (stereo not drawn) — higher, 2.9%
- Cc1ccc(-c2csc(Nc3ccc(Cl)cc3)n2)cc1C — higher, -3.14%
- CCOC(=O)c1sc(-c2ccccc2)nc1O — higher, 66.9%
- CN(C)CCCNc1oc(-c2cccs2)nc1S(=O)(=O)c1ccc(Cl)cc1 — higher, -3.18%
- O=c1c2sccc2nc(SCc2cc(=O)n3ccccc3n2)n1Cc1ccccn1 — higher, 2.07%
- O=C(c1ccc(Cl)cc1)N(C(=O)c1ccc(Cl)cc1)n1cnnc1 — higher, -0.597%
- CCCc1ccc(OCC(=O)Nc2ccc(C)cc2)cc1 — higher, -2.62%
- NC1=C(c2nc3ccccc3s2)C(=O)CN1CCCN1CCOCC1 — higher, -1.64%
- Oc1oc(-c2cccc3ccccc23)nc1/C=N/c1cccnc1 — higher, 1.45%
- CC1(C)Cc2c(oc(N)c2C#N)CS1 — higher, 2.51%
- CC(C)Cn1c(=N)c(C#N)cc2c(=O)n3ccccc3nc21 — higher, -2.64%
- CCCn1c(=O)c2sccc2n2c(CCCC(=O)N3CCc4ccccc4C3)nnc12 — higher, -2.44%
- O=C(NCc1ccco1)c1ccc2c(c1)ncn2-c1ccc(F)cc1F — higher, 7.3%
- CCO/C(O)=C1\C(C)=NC2=C(C(=O)CCC2)C1c1ccsc1 (stereo not drawn) — higher, -3.5%
- Cc1onc(-c2ccccc2)c1C(=O)NCc1ccco1 — higher, -0.00273%
- Cc1[nH]c2c(cc(C)c3nc(O)cc(C(F)(F)F)c32)c1C — higher, 2.18%
- CCN(CC)C(=O)Cn1cc(SCC(=O)N2CCOCC2)c2ccccc21 — higher, 2.99%
- COc1ccc(N2CCN(C(=O)c3ccc(OC4CCCC4)cc3)CC2)cc1 — higher, -2.09%
- CN1CCN(C(=O)Cn2ncc3c2-c2ccccc2OC3)CC1 — lower, -7.18%
- Cc1c(CN(C)Cc2cccc3ccccc23)c(=O)n(-c2ccccc2)n1C — higher, -4.95%
- CC(C)(C)C1CCC(OC(=O)CCC(=O)N2CCCCC2)CC1 (stereo not drawn) — higher, -1.76%
- COc1cc(/C=C2\S/C(=N/c3ccc(Cl)cc3)N(C)C2=O)ccc1OCC(=O)O — higher, 1.15%
- CC1=C(C(=O)OC2CCCCCCC2)C(c2ccccc2C)CC(=O)N1 (stereo not drawn) — higher, 1.39%
- CCN(CC)C(=O)CN(c1ccc(F)cc1)S(=O)(=O)c1ccc(C)cc1 — higher, -1.27%
- CCN1CCN(c2ccc(NC(=O)C(C)C)cc2Cl)CC1 — higher, 1.28%
- CC1CCCCC1NC(=O)Cn1c2c(c(-c3ccccc3Cl)cc1=O)CCC2 (stereo not drawn) — higher, 2.35%
- Cl/C(=C\c1ccccc1)CN1CCN(c2ccc(Cl)cc2)CC1 — higher, -0.0494%
- CC(C)Oc1ccccc1C1NC(C(=O)O)CS1 (stereo not drawn) — higher, -0.25%
- CC(CN1CCN(Cc2ccccc2)CC1)OC(=O)c1cc2ccccc2o1 (stereo not drawn) — higher, -3.64%
- COc1ccc2c(c1)CN(C)c1ccc(C)cc1CN2C — higher, -3.85%
- CCSc1nc(O)c2c(n1)N=C1CC(C)(C)CC(O)=C1C2c1cccs1 (stereo not drawn) — higher, -4.78%
- CC1=C(C(=O)OCc2ccc(C)cc2)C(c2ccccc2OC(C)C)NC(=O)N1 (stereo not drawn) — higher, 25.8%
- Nc1cc(C(=O)N2CCOCC2)cc(C(=O)N2CCOCC2)c1 — higher, -2.98%
- Cc1ccc(N(CC(=O)Nc2ccc(Cl)cc2)S(C)(=O)=O)cc1Cl — lower, -7.5%
- N#C/C(=C\c1ccc(O)cc1)c1nc(-c2ccc(-c3ccccc3)cc2)cs1 — higher, 4.12%
- CS(=O)(=O)c1nc(S(=O)(=O)c2ccc(Cl)cc2)c(NCCc2c[nH]c3ccccc23)s1 — lower, -5.89%
- CCOC(=O)c1cnc(-c2ccccc2)nc1N1CCc2[nH]ncc2C1 — higher, 5.58%
- O=C(Nc1ccccc1)Nc1ccc(S(=O)(=O)N2CCCCC2)cc1 — higher, 14.5%
- CCCn1ncc(SC)c(O)c1=O — lower, -5.9%
- Cc1ccc(C2=N/C(=C\c3cccnc3)C(=O)O2)cc1 — higher, 1.81%
- Fc1ccccc1N1CCN(Cc2cccc(Cl)c2Cl)CC1 — higher, 1.55%
- CC(C)C(NC(=O)/C(=C/c1ccc2c(c1)OCO2)NC(=O)c1ccccc1)C(=O)O (stereo not drawn) — higher, -4.7%
- CSC1=NP(=S)(SC)N2CCCC2=C1C#N (stereo not drawn) — higher, 23.9%

For `CCn1c(C)c(C)c2cc(C(=O)N3CCSCC3)ccc21`, the “% Inhibition @ 10 uM” value was 4.01% and -2.74%.
